Measurements published in PubChem BioAssay AID1476 (National Center for Advancing Translational Sciences (NCATS), 2009).
About 4,500 (2.2%) of roughly 200,000 compounds were called active. The shares of active, inactive and inconclusive entries below differ from those in the screen. The call rests on the fitted dose curve; in most records, active means well fitted inhibition curve with a large enough effect; inconclusive means small, poorly fitted or top-dose-only effect, or effect the other way; inactive means flat fitted curve, though single readings scatter. Potencies of inconclusive entries are doubtful fits and often do not repeat.

molecular target: Cruzipain (Trypanosoma cruzi) (UniProt P25779); experiment: qHTS Assay for Promiscuous and Specific Inhibitors of Cruzain (without detergent); conditions: purified cruzain, Z-FR-AMC fluorescence, no detergent; further: nearly all actives have a fitted effect of over 40% in size;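 on max response, negative = inhibition: plate controls were enzyme without inhibitor for no effect and buffer without enzyme for full effect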
Sequence of UniProt P25779 (P25779 whole entry, looked up): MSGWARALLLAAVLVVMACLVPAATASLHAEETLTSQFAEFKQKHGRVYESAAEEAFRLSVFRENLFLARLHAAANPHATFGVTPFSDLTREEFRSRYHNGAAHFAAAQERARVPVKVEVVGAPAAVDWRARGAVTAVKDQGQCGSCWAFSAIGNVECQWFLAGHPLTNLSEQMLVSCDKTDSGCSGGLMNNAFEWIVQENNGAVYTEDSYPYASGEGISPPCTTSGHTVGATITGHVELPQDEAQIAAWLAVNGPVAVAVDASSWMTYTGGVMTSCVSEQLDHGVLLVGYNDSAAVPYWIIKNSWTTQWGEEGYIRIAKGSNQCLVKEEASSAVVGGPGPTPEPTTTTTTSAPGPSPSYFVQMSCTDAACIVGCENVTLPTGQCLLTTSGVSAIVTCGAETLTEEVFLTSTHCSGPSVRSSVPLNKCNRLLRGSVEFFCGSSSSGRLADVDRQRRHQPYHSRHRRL
Method in brief: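 Detergent-free condition (0.00005% Triton X-100) in acetate buffer pH 5.5 with DTT. 1.5 nM enzyme and compound were pre-mixed 15 min, then 2 uM Z-FR-AMC substrate added; reaction progress from fluorescence change between first and third reads (60 s).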
Potency means the concentration at half of the fitted maximal effect; tags describe the fitted curve by direction and shape.

Row | Structure (SMILES) | Potency | max response, negative = inhibition
1 | O=S(=O)(Nc1cccc(-c2nc3cccnc3s2)c1)c1ccc2c(c1)CCCC2 | inconclusive: 39.8 µM [inhibitor, single point] | 
2 | Cc1ccc2c(c1)N(CC(=O)N1CCN(c3nc4ccccc4s3)CC1)C(=O)C(C)O2 (stereo unspecified) | inconclusive: 31.6 µM [inhibitor, single point] | 
3 | O=C(COc1ccc2ccccc2c1)N1c2ccccc2Sc2ccccc21 | inconclusive: 39.8 µM [inhibitor, single point] | 
4 | NC(=O)c1ccc(NC(=O)COC(=O)c2cccc(Oc3ccccc3)c2)cc1 | active: 15.8 µM | 
5 | O=C(c1cccs1)N1CCc2c([nH]c3ccccc23)C1c1ccc(Cl)cc1 (stereo unspecified) | inconclusive: 39.8 µM [inhibitor, single point] | 
6 | COc1ccc(N2CCN(Cc3cc(=O)oc4ccc5ccccc5c34)CC2)cc1 | inconclusive: 31.6 µM [inhibitor, single point] | 
7 | CCCOc1ccc2oc(=O)c3c(c2c1)CCCN3C(=O)CN1CCN(c2ncccn2)CC1 | inconclusive: 39.8 µM [activator, single point] | 
8 | O=C(CSc1nc2ccccc2o1)N1c2ccccc2Sc2ccc(Cl)cc21 | inconclusive: 39.8 µM [inhibitor, single point] | 
9 | Cc1cccc(N(CC(=O)NC2CCCC2)C(=O)c2cc3cc4cccc(C)c4nc3s2)c1C | inconclusive: 31.6 µM [inhibitor, single point] | 
10 | CCOc1ccccc1NC1c2ccccc2C(=O)N1c1cccnc1 (stereo unspecified) | inconclusive: 7.94 µM [inhibitor, single point] | 
11 | COc1ccc(NC(=O)c2oc3ccccc3c2NC(=O)c2cc3ccccc3o2)cc1 | inconclusive: 6.31 µM [inhibitor, single point] | 
12 | COC(=O)C1=C(N)N(c2ccccc2F)C2=C(C(=O)CC(C)(C)C2)C1c1ccc(OC)c(OC)c1 (stereo unspecified) | inconclusive: 39.8 µM [activator, single point] | 
13 | CCOc1ccc(OCC)c(S(=O)(=O)N2CCCCC2C)c1 (stereo unspecified) | inconclusive: 6.31 µM [inhibitor, partial curve] | 
14 | C=CC#CC[N+]1(CC#Cc2ccccc2)CCOCC1 |  | inactive: -7.92%
15 | CCOc1ccc(-c2nonc2NC(=O)c2oc3c(C)c(C)ccc3c2C)cc1OCC | inconclusive: 39.8 µM [inhibitor, single point] | 
16 | Cc1ccc(NC(=O)CSc2nnc(CN3CCOCC3)n2-c2ccccc2)cc1 | inconclusive: 31.6 µM [activator, single point] | 
17 | Cc1ccc(S(=O)(=O)N(Cc2cc3cccc(C)c3[nH]c2=O)c2ccccc2)cc1 | inconclusive: 31.6 µM [inhibitor, single point] | 
18 | CCOC(=O)c1oc2cccc(OCC(O)CNC(C)C)c2c1C (stereo unspecified) | inconclusive: 39.8 µM [activator, single point] | 
19 | Cc1ccc(Cl)cc1N(C)C(=O)Cn1nc(Cc2cccnc2)c2ccccc2c1=O |  | inactive: 14.5%
20 | COC(=O)[C@H](Cc1ccccc1)NC(=O)O[C@H]1C(=O)c2cc(OC)ccc2O[C@@H]1c1ccc(OC)c(Br)c1 | inconclusive: 10 µM [inhibitor, partial curve, poor fit] | inactive: -10.8%

Row | Structure (SMILES) | Potency | max response, negative = inhibition
21 | O=[N+]([O-])c1ccc(-c2nc(-c3ccc(F)cc3)c(-c3ccncc3)[nH]2)cc1 | inconclusive: 0.0251 µM [activator, full curve, poor fit] | 
22 | Cc1cc(C(=O)CSc2nn3c(=O)c(C(C)(C)C)nnc3s2)c(C)n1-c1ccc(F)cc1 | active: 12.6 µM | 
23 | Cc1cc(C)cc(OC(C)C(=O)Nc2nonc2-c2ccc(Br)cc2)c1 (stereo unspecified) |  | inactive: -3.82%
24 | N#Cc1c(SCc2ccc(Cl)cc2)sc(C(=O)c2ccccc2)c1N | inconclusive: 39.8 µM [inhibitor, single point] | 
25 | O=C1[C@@H]2[C@@H]3C[C@@H]([C@H]4ON=C(c5ccc(OCc6ccccc6)cc5)[C@@H]34)[C@@H]2C(=O)N1c1ccc2c(c1)OCO2 | inconclusive: 25.1 µM [inhibitor, single point] | 
26 | COC(=O)c1cccnc1 |  | inactive: -0.688%
27 | CCN(CC)c1nc(SCCOC(=O)Nc2ccccc2)nc(N(CC)CC)n1 |  | inactive: -16.8%
28 | Cc1ccc(S(=O)(=O)C2(C(=O)O)CCCC2)cc1C | inconclusive: 3.98 µM [inhibitor, single point] | 
29 | O=C(NCCN1C(=O)S/C(=C\c2ccc(Cl)cc2)C1=O)c1ccc(F)c(S(=O)(=O)N2CCOCC2)c1 | inconclusive: 15.8 µM [activator, partial curve] | 
30 | CCc1cc(=O)oc2c(CN3CCCC3)c(O)c(Cl)cc12 | inconclusive: 39.8 µM [inhibitor, single point] | 
31 | Cc1ccc(NC(=O)CCC(=O)N/N=C/C=C/c2ccccc2)cc1 | inconclusive: 25.1 µM [inhibitor, single point] | 
32 | O=C(/C=C/Nc1ccc(Br)cc1F)c1ccccc1 | inconclusive: 25.1 µM [inhibitor, single point] | 
33 | Cc1nnc(SCc2ccccc2)c2cc3sccc3n12 | inconclusive: 39.8 µM [activator, single point] | 
34 | CCOc1cc(C(=O)N2CC(=O)Nc3ccc(C)cc3C2c2ccccc2)cc(OCC)c1OCC (stereo unspecified) | inconclusive: 31.6 µM [activator, single point] | 
35 | Cc1ccc(S(=O)(=O)Cn2nnnc2C(CC(C)C)N2CCN(C(=O)c3ccco3)CC2)cc1 (stereo unspecified) | inconclusive: 39.8 µM [activator, single point] | 
36 | Cc1cc(C)nc(SCc2cc(=O)c(OC(=O)c3ccc(S(=O)(=O)N4CCCC4)cc3)co2)n1 | inconclusive: 39.8 µM [activator, single point] | 
37 | N#CCC(=O)N/N=C/c1ccc(Sc2nc3ccccc3s2)o1 | inconclusive: 31.6 µM [inhibitor, single point] | 
38 | COc1ccccc1CNC(=O)c1ccc2c(c1)N(Cc1cccc(C)c1)C(=O)c1ccccc1S2(=O)=O | inconclusive: 31.6 µM [inhibitor, single point] | 
39 | Fc1ccc2nc(Nc3nc4c(F)cc(F)cc4s3)sc2c1 | inconclusive: 31.6 µM [inhibitor, single point] | 
40 | CC1CC(C)CN(C(=O)c2cccc(S(=O)(=O)Nc3cc(C(F)(F)F)ccc3Cl)c2)C1 (stereo unspecified) | inconclusive: 25.1 µM [activator, single point] | 

Row | Structure (SMILES) | Potency | max response, negative = inhibition
41 | COc1cc(-c2noc(-c3ccc(NCc4ccccc4)c([N+](=O)[O-])c3)n2)cc(OC)c1OC | inconclusive: 31.6 µM [inhibitor, single point] | 
42 | COc1ccc(-c2[nH]ncc2/C=N/NC(=O)c2cc(Br)ccc2O)c(OC)c1 | inconclusive: 25.1 µM [activator, single point] | 
43 | Cc1nc2oc3c(NCc4ccccn4)ncnc3c2c2c1COC(C)(C)C2 | inconclusive: 20 µM [activator, partial curve] | 
44 | CC(=O)c1ccc(N(C(=O)Cn2nnc3ccccc32)C(C(=O)NC2CCCCC2)c2cn(C)nc2C)cc1 (stereo unspecified) | inconclusive: 39.8 µM [activator, single point] | 
45 | CCCCOc1ccc(C(=O)Nc2nnc3n2CCS3)cc1 |  | inactive: -3.03%
46 | Cc1ccc(CNC(=O)C2(CC(C)C)C=CCN2C(=O)c2ccccc2)o1 (stereo unspecified) | inconclusive: 39.8 µM [activator, single point] | 
47 | CCOC(=O)N1CCC(NC(=O)c2c(C)nn(-c3ccc(C)cc3)c2-n2cccc2)CC1 |  | inactive: 1.32%
48 | CCOC(=O)C(Cc1ccccc1)C(=O)Nc1ccc(NC(=O)C(Cc2ccccc2)C(=O)OCC)cc1 (stereo unspecified) | active: 7.94 µM | 
49 | COc1ccc(OC)c(CCNC(=O)c2ccc3c(c2)N(Cc2ccc(C)cc2)CCS3)c1 |  | inactive: -26.2%
50 | CCc1cccc(OCC(=O)Nc2ccc(S(=O)(=O)Nc3cc(C)nc(C)n3)cc2)c1 | inconclusive: 39.8 µM [activator, single point] | 
51 | O=C(CN1CCN(S(=O)(=O)c2ccc(Cl)cc2)CC1)Nc1ccc(N2CCOCC2)cc1 | inconclusive: 39.8 µM [activator, single point] | 
52 | Cc1ccc(NC(=O)c2ccc(-c3nn(C)c(=O)c4ccccc34)cc2)cc1 | inconclusive: 39.8 µM [activator, single point] | 
53 | Cc1cc(C)cc(NC(=O)CSc2nc3c(oc4ccccc43)c(=O)n2-c2ccccc2F)c1 | active: 20 µM | 
54 | COCCOC(=O)c1c(C)n(S(=O)(=O)c2ccc(C)cc2)c2ccc(NS(=O)(=O)c3ccc(C)cc3)cc12 | active: 10 µM | 
55 | Fc1ccccc1NC(=S)N/N=C/c1ccccc1Br | inconclusive: 12.6 µM [inhibitor, partial curve] | 
56 | O=S(=O)(NCCc1nnc2ccc(SCc3ccc(Cl)cc3Cl)nn12)c1ccccc1 | inconclusive: 39.8 µM [activator, single point] | 
57 | CCS(=O)(=O)N1Cc2ccccc2CC1C(=O)Nc1nnc(SCc2ccc(C#N)cc2)s1 (stereo unspecified) | active: 25.1 µM | 
58 | CC(C)[C@@H](CC(=O)N[C@@H]1CCCC[C@H]1C(=O)N[C@H](CC(=O)N[C@@H](CCC(=O)O)CC(=O)O)Cc1c[nH]c2ccccc12)NC(=O)C[C@H](Cc1ccccc1)NC(=O)[C@@H]1CCCC[C@H]1N | inconclusive: 25.1 µM [activator, single point] | 
59 | CCOC(=O)c1[nH]c2c(c1Cc1ccccc1)C(=O)CC(c1ccc(Cl)cc1)C2 (stereo unspecified) | inconclusive: 25.1 µM [inhibitor, single point] | 
60 | CCOC(=O)c1cccc(N/C=C/C(=O)c2ccc(OC)c(OC)c2)c1 | inconclusive: 39.8 µM [activator, single point] | 
